According to PubChem BioAssay AID1240 (Sanford-Burnham Center for Chemical Genomics, 2008):
Out of some 50,000 compounds screened, about 800 (1.6%) showed an effect of 50% or more. This is one part of the list.

Target: Bcl-2-like protein 10 (Homo sapiens) (UniProt Q9HD36)
Assay: TR3 peptide-Bcl-B binding displacers, biochemical primary FP assay, phenotype converters (AID 1240);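 further: 0% = Bcl-B with tracer peptide and DMSO and 100% = tracer peptide lacking Bcl-B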
Conditions: GST-Bcl-B / FITC-TR3 peptide fluorescence polarization; stronger effect = higher value; compound at 3.75 mg/L

Chain of UniProt Q9HD36 (Q9HD36 whole entry, looked up): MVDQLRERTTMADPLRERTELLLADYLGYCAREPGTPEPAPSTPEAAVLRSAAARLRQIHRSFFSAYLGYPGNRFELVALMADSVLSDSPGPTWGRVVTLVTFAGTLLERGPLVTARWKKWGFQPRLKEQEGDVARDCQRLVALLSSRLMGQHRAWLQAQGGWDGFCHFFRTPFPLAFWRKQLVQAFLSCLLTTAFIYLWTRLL

SMILES | displacement [%]
COc1ccccc1N1C(=O)c2ccc(C(=O)c3ccc4c(c3)C(=O)N(c3ccccc3OC)C4=O)cc2C1=O | -5.3
COc1ccc(-c2cc(C(=O)NCCN3CCOCC3)c3ccccc3n2)c(OC)c1 | -0.4
O=C1C(Nc2ccccc2)=CC(c2ccccc2F)N1c1ccccc1 (stereo unspecified) | 9.5
COc1ccc(S(=O)(=O)Nc2cc(Cl)ccc2C)cc1 | 4.5
COc1ccccc1N1CCN(/N=C/c2cc(Br)ccc2F)CC1 | 12.9
C=CCn1c(N)c(-c2nc3ccccc3[nH]2)sc1=S | 0.1
CCOC(=O)c1c(NC(=O)C(c2ccccc2)c2ccccc2)sc2c1CC(C)(C)OC2 | 2.1
O=C(NCCO)c1ccc(I)cc1 | 7.3
Cc1onc(-c2ccccc2)c1C(=O)N1CCN(C)CC1 | 13.1
COc1ccc(C(O)(CNCc2ccccc2)c2ccccc2)cc1 (stereo unspecified) | -3.2
Cc1nc(Nc2nc(-c3ccccc3)cc(=O)[nH]2)nc2c(C)cccc12 | 13
O=C(Nn1c(O)c(/C=C2\C=Nc3ccccc32)sc1=S)c1cccc(O)c1 | -66.2
COc1cccc(C(=O)Nc2nnc(COc3ccccc3F)s2)c1 | -52.4
CCOC(=O)c1c(-c2ccccc2)csc1NC(=O)C1CCCN1S(=O)(=O)c1ccc(Cl)cc1 (stereo unspecified) | 13.7
CN1C(=O)NC(=O)/C(=C\c2cc(Cl)c(O)c(Cl)c2)C1=O | 1.9
CCOc1ccccc1N1CCN(C(=O)c2cccc(F)c2)CC1 | -7.9
CC(=O)Nc1ccc(NC(=O)c2ccc(N3C(=O)c4ccc(C(=O)Nc5ccc(NC(C)=O)cc5)cc4C3=O)cc2)cc1 | 9.6
Cc1ccccc1NC(=O)CCN1C(=O)S/C(=C\c2ccccc2)C1=O | -0.4
COc1ccc(C2=NN(CN3C(=O)C(=O)c4cc(Br)ccc43)C(c3ccccc3)C2)cc1 (stereo unspecified) | -6.7
O=C(NC(=S)Nc1ccc([N+](=O)[O-])cc1)c1ccco1 | 8.8
COc1cc2nnc(/C=C/C(C)=O)c(-c3ccc(C)o3)c2cc1OC | 48
O=C(CSc1ccc(/C=N/NC(=O)c2cccc(F)c2)o1)Nc1ccccc1 | -3
COC(=O)c1ccc(CSc2nc3ccccc3[nH]2)cc1 | 14.6
C=CCc1ccccc1OCc1nnc(N)s1 | 4.5

SMILES | displacement [%]
COc1ccccc1NC(=O)/C=C1/c2ccccc2CC(C)(C)N1C | -2.1
Cc1cccc(-c2nc3sc4c(c3c(=O)o2)CCC4)c1 | 2.8
CCC(=O)N1CCN(c2cc(N3CCC(C)CC3)c(F)cc2[N+](=O)[O-])CC1 | 2
Cc1nc2ccccc2n1CC(=O)c1ccccc1 | -8.6
O=C(Nc1ccc(Br)cc1)c1nn2c(c1Cl)NC(c1ccc(Cl)cc1)CC2C(F)(F)F (stereo unspecified) | 7.2
NC(=O)c1ccc(CN2CCC(Cc3ccccc3)CC2)cc1 | -6.4
CCc1ccc(/C(=C2/OC(=O)c3ccccc32)[N+](=O)[O-])cc1 | 13.4
Cc1ccc(NC(=O)C2CC(=O)N(c3ccc(C)cc3)C2)cc1 (stereo unspecified) | 10.4
O=C(CCC(=O)OCC(F)(F)C(F)F)Nc1nc2ccccc2s1 | 14.3
O=S(=O)(Cc1ccccc1)c1nc2ccccc2n1Cc1ccc(Cl)c(Cl)c1 | -3.7
COc1ccc(CN2CCN(C3CCCC3)CC2)c(OC)c1 | -3.4
Cc1ccc(/C(O)=C/C(=O)C(=O)O)cc1 | -5.3
CCOC(=O)C(Cc1ccccc1Cl)(NC(C)=O)C(=O)OCC | -7.2
CCOc1cc(C(=O)N2c3ccc(F)cc3CCC2C)cc(OCC)c1OCC (stereo unspecified) | -8.4
COc1ccccc1CNCc1cccc(Oc2ccccc2)c1 | -15.1
CCCCNC(=O)NC1C(NC(=O)NCCCC)N(C)C(=O)N1C (stereo unspecified) | -9.7
CCOc1ccc(C2=Cc3cc(OC)c(OC)cc3S(=O)(=O)O2)cc1 | 5.2
CCN1CCN(Cc2c(O)ccc3c(=O)c(Oc4ccccc4Br)c(C(F)(F)F)oc23)CC1 | -2
O=C(NC(=S)Nc1ccccc1)C12CC3CC(CC(C3)C1)C2 | -4.3
CCOc1cc(C(=S)N2CCC(C)CC2)ccc1O | -7.2
CC(C)CCn1c(Cc2ccccc2)nc2ccccc21 | 13.2
Cc1c(C)c2ccc(OCC(=O)O)cc2oc1=O | 10.1
CCCc1ncc(C(O)c2ccc(OCC)cc2)n1C (stereo unspecified) | -8.5
CC1CN(C(=O)c2cc(Cl)ccc2Cl)CC(C)O1 (stereo unspecified) | 6.4

SMILES | displacement [%]
N/C(Cc1ccc([N+](=O)[O-])cc1)=N\OC(=O)COc1cccc2ccccc12 | -17.2
Cc1ccc(C2C(C(=O)c3cccs3)=C(O)C(=O)N2c2nncs2)cc1 (stereo unspecified) | 121
Cc1ccccc1-c1n[nH]c(=S)n1-c1ccccc1 | -30.9
CCCOc1ccc(/C=C/C(=O)c2ccc(F)cc2)cc1OCC | -1
CCCC1C(c2ccccc2)NC(c2ccccc2)C(C)C1(O)CCC (stereo unspecified) | 12
O=C(Nc1nccs1)c1cccc(NC(=O)c2ccco2)c1 | -12
COc1cc(C(=O)Nc2ccc(C(=O)OC3CCCCC3)cc2)cc(OC)c1OC | -8.5
CCCOC(=O)c1ccc(NC(=O)c2cc(Cl)c(OC)c(Cl)c2)cc1 | -3
COc1ccc(C(c2c(C)[nH]c3ccccc23)c2c(C)[nH]c3ccccc23)cc1OC | 21.6
O=C(NCc1cccnc1)C(=O)Nc1ccccc1Cl | -11.3
CCC(C(=O)Nc1ccc(Cl)c([N+](=O)[O-])c1)c1ccccc1 (stereo unspecified) | 18.5
O=C(CN1C(=O)C2(OCCO2)c2ccccc21)c1ccccc1 | 4.8
CCOc1ccccc1N=Cc1c(O)n(C)c(=O)n(C)c1=O | 5.2
O=C1NC(=S)N/C1=C/c1ccc(-c2cc([N+](=O)[O-])ccc2Cl)o1 | 18.2
O=C(CSc1nnc(-c2cccc(F)c2)n1-c1ccccc1)NCc1ccccc1 | 13.5
O=C(OCc1ccc2c(c1)OCO2)c1ccc(S(=O)(=O)N2CCCCC2)cc1 | 6.6
CCC(C)NC(=O)CN(c1cccc(Br)c1)S(=O)(=O)c1ccccc1 (stereo unspecified) | 2.4
NNc1nccc(Nc2ccccc2C(=O)O)n1 | -29.4
COc1cccc(/C=N\NC(=O)CN2CCN(Cc3ccccc3)CC2)c1O | -21.8
Fc1ccccc1-c1nnc(-c2ccc3c(c2)OCO3)o1 | 11.9
Cc1ccc(-c2csc(NC(=O)c3ccccc3Cl)n2)cc1 | 9.1
CCn1c2ccccc2c2cc(NC(=O)c3cccnc3)ccc21 | 5.1
COCCCN1C(=O)/C(=C\c2cccs2)SC1=S | -8.2
